{"source": "ChEMBL document CHEMBL4888484", "about": "“Replenishing the malaria drug discovery pipeline: Screening and hit evaluation of the MMV Hit Generation Library 1 (HGL1) against asexual blood stage Plasmodium falciparum ,using a nano luciferase reporter read-out” (2022)", "note": "About 540 (0.36%) of roughly 150,000 compounds showed an effect of 50% or more. The list shows a part of the results.", "data": [{"tested_on": "Plasmodium falciparum", "experiment": "Primary screen in NF54 nanoGlo assay, in single point, at 2uM, 72h; a lower Z score goes with more inhibition", "assay_type": "functional, Erythrocyte", "conditions": "timepoint 72 hour", "units": {"% Inhibition": "%"}, "values": [{"compound": "CC(=O)N[C@@H](c1ccccc1)c1ccc2c(c1)CCCO2", "% Inhibition": 5, "Z score": -0.87}, {"compound": "COCC(=O)N1CCc2cc(NC(=O)c3cnc4ccccc4n3)ccc21", "% Inhibition": -16, "Z score": 1.99}, {"compound": "CCCc1cncnc1-c1cccc(C(=O)N2Cc3nc(C)[nH]c(=O)c3C2)c1", "% Inhibition": 4, "Z score": -0.46}, {"compound": "Cc1nc(C)c(F)c(NCc2sncc2Br)n1", "% Inhibition": -13, "Z score": 1.42}, {"compound": "COC(=O)C1CCC(NC(=O)COC2CCCC(C)C2)CC1", "note": "(stereo not drawn)", "% Inhibition": -13, "Z score": 1.96}, {"compound": "O=C1NCCCn2cc(S(=O)(=O)N3CCN(c4ccc(Cl)cc4)CC3)cc21", "% Inhibition": -3, "Z score": 0.38}, {"compound": "Clc1cccc(C2(c3nnc(-c4cnccn4)o3)CCOCC2)c1", "% Inhibition": -6, "Z score": 0.78}, {"compound": "CC(C)ONC(=O)[C@@H]1Cc2cc(F)ccc2NC1=O", "% Inhibition": -8, "Z score": 0.88}, {"compound": "Cc1oc(-c2ccccc2Cl)nc1Cn1cccc1C1=N[C@H](c2ccccc2)CO1", "% Inhibition": -2, "Z score": 0.44}, {"compound": "COC[C@H]1CCCN1[C@@H]1[C@H](O)[C@H](CO)O[C@@H]1CNC(=O)Nc1ccc(OC(F)(F)F)cc1", "% Inhibition": 16, "Z score": -1.86}, {"compound": "Cc1cc(C(=O)Nc2cccc(C(N)=O)n2)on1", "% Inhibition": 29, "Z score": -3.91}, {"compound": "COc1ccc(NC(=O)COC(=O)[C@@H](Nc2ccc(C(F)(F)F)cc2Cl)C(C)C)cc1S(N)(=O)=O", "% Inhibition": -18, "Z score": 2.98}, {"compound": "Cc1cc(C)c(CNC(=O)c2csc(C)n2)c(=O)[nH]1", "% Inhibition": -10, "Z score": 1.6}, {"compound": "COc1cc(F)c(S(=O)(=O)NC(=O)CCn2ccnn2)c(F)c1", "% Inhibition": -14, "Z score": 1.27}, {"compound": "Cc1cccc(C)c1-n1c(=O)n(C[C@H]2CCCO2)c(=O)c2c1ncn2Cc1cccc(Cl)c1", "% Inhibition": -7, "Z score": 0.69}, {"compound": "Cc1oc(Br)cc1C(=O)NS(=O)(=O)C1C[C@@H]2CC[C@H]1C2", "note": "(stereo partly drawn)", "% Inhibition": -3, "Z score": 0.32}, {"compound": "Cc1ccc(Cc2ccccc2C(=O)N[C@@H]2CN[C@H](C(=O)O)C2)cc1F", "% Inhibition": 7, "Z score": -0.92}, {"compound": "Cc1ccc(N(C(=O)Cn2nnnc2N)C2(C(=O)Nc3ccccc3C)CCCCC2)cc1", "% Inhibition": 8, "Z score": -0.93}, {"compound": "O=C(CN1CCN(C(=O)Nc2ccccc2)CC1=O)N1CCN(c2cccc(Cl)c2)CC1", "% Inhibition": -3, "Z score": 0.58}, {"compound": "c1ccc(-c2ncn(C[C@@H](c3ccco3)N3CCCC3)c2-c2ncc[nH]2)cc1", "% Inhibition": -11, "Z score": 1.3}, {"compound": "Cc1nsc(C)c1NC(=O)c1ccoc1C1CC1", "% Inhibition": 8, "Z score": -0.96}, {"compound": "O=C(Nc1cccnc1)N1CCC(Oc2ccc(Cl)cc2)CC1", "% Inhibition": -7, "Z score": 1.06}, {"compound": "CC1(C)CCCc2sc(NC(=O)NCc3cccnc3N)nc21", "% Inhibition": 32, "Z score": -3.61}, {"compound": "CN(CC(C)(C)O)S(=O)(=O)c1cc(Br)ccc1F", "% Inhibition": -16, "Z score": 1.93}, {"compound": "O=C(CCNC(=O)c1cnn(Cc2ccccc2)c1)N[C@H]1CCS(=O)(=O)C1", "% Inhibition": -9, "Z score": 1.05}, {"compound": "O=C(N[C@H]1CCCN(C2CCCCC2)C1=O)c1cc(C2CC2)on1", "% Inhibition": -7, "Z score": 0.98}, {"compound": "COC[C@H]1CCN(C(=O)NCc2cc(OC)ccn2)C1", "% Inhibition": 0, "Z score": 0.05}, {"compound": "O=C(Cc1cccs1)NC[C@H]1CCCO1", "% Inhibition": -3, "Z score": 0.35}, {"compound": "O=C(Nc1cccc2ncccc12)C1CCN(C2CC2)CC1", "% Inhibition": -5, "Z score": 0.65}, {"compound": "Cc1ccc(F)c(S(=O)(=O)N(C)CC(=O)NCC(F)(F)F)c1", "% Inhibition": -10, "Z score": 1.27}, {"compound": "O=C(c1cccs1)N1CCCCCCC1", "% Inhibition": -18, "Z score": 2.32}, {"compound": "COc1cccc(CC(=O)N2CCC3(CC2)NC(c2ccc(C)cc2)=NO3)c1", "% Inhibition": -7, "Z score": 0.86}, {"compound": "O=C(O)c1nnn(Cc2ccccc2F)c1-c1cccnc1", "% Inhibition": 1, "Z score": -0.06}, {"compound": "O[C@]1(C(F)(F)F)CC(c2ccccc2)=NN1c1cccc2cccnc12", "% Inhibition": 1, "Z score": -0.2}, {"compound": "CCN(CC1CC1)S(=O)(=O)NCc1ccc(N2CCO[C@@H](C)C2)nc1", "% Inhibition": 32, "Z score": -3.6}, {"compound": "CC[C@H]1CN(Cc2ccccc2)CCN1C(=O)Nc1ccn(C)n1", "% Inhibition": -3, "Z score": 0.37}, {"compound": "CCNC(=O)[C@H](C)Nc1ncc(C(F)(F)F)cc1Cl", "% Inhibition": -20, "Z score": 1.84}, {"compound": "COc1ccc2c(c1)N1CCN(c3ccccc3OC)CC1C(C(=O)NCCN1CCCC1)C2", "note": "(stereo not drawn)", "% Inhibition": 1, "Z score": -0.15}, {"compound": "Cc1nnc(CCNC(=O)Nc2cc(C)c(F)cc2Cl)s1", "% Inhibition": -12, "Z score": 1.92}, {"compound": "O=C(OCc1ccc(C(F)(F)F)nc1)c1ccc(C(F)(F)F)nc1", "% Inhibition": 35, "Z score": -1}, {"compound": "CN(Cc1cnccn1)C(=O)CCCc1ccccc1", "% Inhibition": -4, "Z score": 0.67}, {"compound": "CCc1nc2c(c(OC3CCN(C(=O)NCc4ccco4)CC3)n1)CCOCC2", "% Inhibition": -8, "Z score": 0.93}, {"compound": "O=C(c1c[nH]c(-c2ccccc2)n1)N1[C@H]2CCNC[C@@H]1CC2", "% Inhibition": -10, "Z score": 1.65}, {"compound": "O=C1CCN(CC(=O)Nc2ccc(C(F)(F)F)cc2)CCN1", "% Inhibition": -12, "Z score": 1.38}, {"compound": "CN(CC(=O)N1CCCC1)c1ncnc2cccc(F)c12", "% Inhibition": 0, "Z score": 0.05}, {"compound": "O=C(Nc1cnn(-c2nccs2)c1)c1cnc2ccccc2n1", "% Inhibition": -7, "Z score": 1.27}, {"compound": "CCC(C)N1C(=O)[C@@H]2C(Cc3c[nH]c4ccccc34)NC3(C(=O)Nc4c(C)cccc43)[C@@H]2C1=O", "note": "(stereo partly drawn)", "% Inhibition": 0, "Z score": -0.06}, {"compound": "Cn1ccc(C(=O)N(c2ccccc2F)C2CCCC2)cc1=O", "% Inhibition": -8, "Z score": 1.19}, {"compound": "CNC(=O)C[C@H]1CCN(Cc2cnc(N(C)C)nc2)C1", "% Inhibition": -2, "Z score": 0.26}, {"compound": "CCC(CC)(CC)NC(=O)CCc1ccccn1", "% Inhibition": -2, "Z score": 0.31}, {"compound": "CC[C@H]1CCCN(Cc2ccc(OC)c(Cn3cncn3)c2)CC1", "% Inhibition": 3, "Z score": -0.5}, {"compound": "CCNC(=O)c1ccc(NCCc2ccc[nH]2)nn1", "% Inhibition": 0, "Z score": 0.04}, {"compound": "Cc1cc(C)nc(CN(C)Cc2nc(C)c(C)s2)c1", "% Inhibition": -4, "Z score": 0.75}, {"compound": "CN(c1ccc(Cl)c(C(=O)NCc2ccc(F)cc2)c1)S(C)(=O)=O", "% Inhibition": -6, "Z score": 0.79}, {"compound": "CCOc1ccc(-c2cn3ccn(-c4cccc(F)c4)c(=O)c3n2)cc1", "% Inhibition": -9, "Z score": 1.48}, {"compound": "Cc1cccc(S(=O)(=O)Nc2nccc(C3CC3)n2)c1F", "% Inhibition": 18, "Z score": -1.57}, {"compound": "C=CCc1cc(CNC)cc(OC)c1O", "% Inhibition": 0, "Z score": 0.02}, {"compound": "Cn1ncc(CCC(=O)NC[C@@H](CO)Cc2ccccc2Cl)n1", "% Inhibition": 2, "Z score": -0.4}, {"compound": "CC[C@H](NS(=O)(=O)CCCN1C(=O)c2ccccc2C1=O)c1ccc(Cl)cc1", "% Inhibition": -1, "Z score": 0.09}, {"compound": "COc1cccc(CN2CCC[C@@]3(CCN(C(=O)CCOc4ccccc4)C3)C2)c1OC", "% Inhibition": -5, "Z score": 0.62}, {"compound": "Cc1cccc(S(=O)(=O)n2cc3c(=O)n(C(C)C)c(=O)n(C(C)C)c3n2)c1", "% Inhibition": -2, "Z score": 0.21}, {"compound": "O=C(Nc1ccccc1)c1ccc(N2CC(N3CCNC3=O)C2)nn1", "% Inhibition": -7, "Z score": 0.92}, {"compound": "Cc1ccc(C)c(CN2CC(c3nc(C4CC4)no3)C2)c1", "% Inhibition": -9, "Z score": 1.74}, {"compound": "CCN(C(=O)CCCc1ccccc1)c1nc(C)cs1", "% Inhibition": -4, "Z score": 0.76}, {"compound": "Cc1nc(-c2cc(S(N)(=O)=O)ccc2F)n(-c2cccc3cccnc23)n1", "% Inhibition": -8, "Z score": 1.02}, {"compound": "Cc1ccn(-c2cc(COC(=O)c3cncc(F)c3)ccn2)n1", "% Inhibition": -9, "Z score": 1.24}, {"compound": "C[C@H](C(=O)NCCc1ccco1)C1CCN(C(=O)c2cc3ccccc3[nH]2)CC1", "% Inhibition": -40, "Z score": 3.68}, {"compound": "CS(=O)(=O)N(Cc1cccnc1)C1CN(C(=O)c2ccc3cc[nH]c3c2)C1", "% Inhibition": 5, "Z score": -0.88}, {"compound": "CCS(=O)(=O)N1CCC[C@H](CNC(=O)C2CCCC2)C1", "% Inhibition": -8, "Z score": 0.81}, {"compound": "C[C@H](c1ccc(C(=O)N2CCOC3(CCC3)C2)cc1)C(F)(F)F", "% Inhibition": -1, "Z score": 0.17}, {"compound": "O=C(CCn1cncn1)Nc1ccc2c(Cl)ccc(Cl)c2n1", "% Inhibition": 4, "Z score": -0.41}, {"compound": "CC(C)N(CCc1nccs1)C(=O)c1cncc(O)c1", "% Inhibition": -6, "Z score": 0.88}, {"compound": "CC(O)CC1COCCN1C(=O)NCc1cccc(C(F)(F)F)c1", "note": "(stereo not drawn)", "% Inhibition": -4, "Z score": 0.51}, {"compound": "Cc1nnc2sc(-c3ccc(NC(=O)Cc4ccccc4)cc3)nn12", "% Inhibition": 4, "Z score": -0.52}, {"compound": "COCC1(C2CCC2)CN(C(=O)N[C@H]2CCc3c2ccc(Cl)c3Cl)C1", "% Inhibition": -6, "Z score": 0.89}, {"compound": "Cc1cc(C(=O)Nc2ccnc(Oc3ccc(F)cc3F)c2)no1", "% Inhibition": 33, "Z score": -3.75}, {"compound": "COc1nc(C)c(C(=O)N2[C@@H]3CC[C@H]2CNC(=O)C3)s1", "% Inhibition": 14, "Z score": -2.46}, {"compound": "Cc1cnc(C)c(N2CCC(Oc3ccc4ccccc4c3)(C(=O)O)CC2)n1", "% Inhibition": -9, "Z score": 1.86}, {"compound": "Cc1cc(COc2ccccc2)oc1C(=O)N1Cc2nc[nH]c2C[C@H]1C(=O)O", "% Inhibition": -4, "Z score": 0.78}, {"compound": "COC(=O)N1CC(NC(=O)c2cc(-c3cc(C)oc3C)nc3onc(C)c23)C1", "% Inhibition": -2, "Z score": 0.26}, {"compound": "COc1ccc(Cl)cc1NC(=O)CN1CCc2nc(NC(=O)c3ccoc3)sc2C1", "% Inhibition": 11, "Z score": -1.47}, {"compound": "Cc1noc(C)c1C(=O)Nc1nc(C(F)(F)F)n[nH]1", "% Inhibition": -15, "Z score": 1.69}, {"compound": "CC(C)C[C@H](N)C(=O)N(C)CCc1ccc(F)cc1", "% Inhibition": -9, "Z score": 1.11}, {"compound": "CC(C)(C)n1cc(CN2CCC[C@@H]2CC(=O)c2ccc(F)cc2)nn1", "% Inhibition": -16, "Z score": 1.62}]}]}
